# From PubChem BioAssay AID488969 (Vanderbilt High Throughput Screening Facility, 2010)
# Whole data set: some 110,000 compounds, median “z-score” near -0.1, cut for the highest 2% near 2. This is one part of the list.
# Target: Metabotropic glutamate receptor 8 (Rattus norvegicus) (UniProt P70579)
# Assay: rat mGluR8 modulators via GIRK flux, primary screen, cell-based, thallium flux, HTS (AID 488969)
# Settings: HEK293 rat mGluR8, GIRK (G protein-gated inwardly rectifying potassium channel) thallium flux, FluoZin2; at 10 µM; stronger effect = higher value; submaximal glutamate (EC20) added with thallium
# UniProt P70579, sequence (P70579 whole entry, looked up): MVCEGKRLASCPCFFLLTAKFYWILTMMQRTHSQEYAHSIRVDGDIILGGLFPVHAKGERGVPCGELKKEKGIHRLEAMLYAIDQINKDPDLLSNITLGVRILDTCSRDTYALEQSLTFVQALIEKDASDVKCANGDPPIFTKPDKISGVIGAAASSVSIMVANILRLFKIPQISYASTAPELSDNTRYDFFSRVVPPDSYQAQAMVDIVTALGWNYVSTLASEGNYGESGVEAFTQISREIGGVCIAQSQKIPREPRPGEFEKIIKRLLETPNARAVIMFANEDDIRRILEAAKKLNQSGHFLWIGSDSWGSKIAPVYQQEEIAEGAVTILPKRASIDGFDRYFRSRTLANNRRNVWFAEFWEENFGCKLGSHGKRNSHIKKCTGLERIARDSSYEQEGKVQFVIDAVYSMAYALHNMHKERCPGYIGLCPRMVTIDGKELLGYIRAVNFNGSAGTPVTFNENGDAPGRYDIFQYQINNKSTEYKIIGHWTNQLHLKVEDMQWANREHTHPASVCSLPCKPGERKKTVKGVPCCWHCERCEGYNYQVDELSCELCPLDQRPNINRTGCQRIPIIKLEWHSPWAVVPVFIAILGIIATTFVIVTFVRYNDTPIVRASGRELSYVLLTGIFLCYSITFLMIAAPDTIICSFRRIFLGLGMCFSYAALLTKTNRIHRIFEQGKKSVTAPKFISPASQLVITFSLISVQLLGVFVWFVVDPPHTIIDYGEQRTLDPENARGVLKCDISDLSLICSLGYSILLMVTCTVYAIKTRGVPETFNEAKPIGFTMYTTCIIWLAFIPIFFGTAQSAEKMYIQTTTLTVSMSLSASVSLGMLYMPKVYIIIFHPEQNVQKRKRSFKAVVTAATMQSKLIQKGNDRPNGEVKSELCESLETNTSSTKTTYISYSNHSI
row,Structure (SMILES),z-score
1,ClCc1nnc(-c2ccccc2)o1,-0.143
2,O=C(c1cccc(C(F)(F)F)c1)N1CCC(O)(CS(=O)(=O)Cc2ccc(Cl)cc2)CC1,0.366
3,O=c1c(F)cn(C2CCCO2)c(=O)n1Cc1c(F)cccc1Cl (stereo not drawn),-0.104
4,COc1ccc(C(C(=O)NC2CCCC2)N(C(=O)c2ccoc2C)c2cc(C)cc(C)c2)cc1 (stereo not drawn),-0.442
5,O=S(=O)(c1cccc2c(S(=O)(=O)N3CCCC3)cccc12)N1CCCC1,0.19
6,CC1(c2ccc(Cl)cc2)NC(=O)N(CC(=O)NCc2cccs2)C1=O (stereo not drawn),0.0849
7,CC1CCN(C(=O)CCNS(=O)(=O)c2ccccc2)CC1,-0.297
8,COC(=O)C1CCN(S(C)(=O)=O)CC1,-0.211
9,Cc1ccc(O)c(C2=Nc3ccccc3N=C(c3ccco3)C2)c1,-0.147
10,COc1ccc2[nH]cc(C3N4CC5(C)CN3CC(C)(C4)C5=O)c2c1 (stereo not drawn),1.24
11,COc1cc(C(=S)N2CCOCC2)ccc1OC(=O)c1cc([N+](=O)[O-])c(C)c([N+](=O)[O-])c1,0.117
12,COc1ccc(C(=O)N(CC2CCCO2)C(C(=O)NC2CCCC2)c2ccc(Cl)cc2)cc1OC (stereo not drawn),-0.0674
13,Cc1nn(Cc2c(F)c(F)c(F)c(F)c2F)c(C)c1NC(=O)c1cccc(COc2ccccc2Cl)c1,-0.784
14,Cc1cc(C)n(-c2ccc(Cl)c(C(=O)OCC(N)=O)n2)n1,-0.673
15,Cc1n[nH]c(C)c1CCC(=O)N/N=C/C=C/c1ccccc1,-0.227
16,Cc1ccc2nc(SCC(=O)Nc3cc(C(F)(F)F)ccc3N3CCOCC3)[nH]c2c1,-0.336
17,CS(=O)(=O)c1ccccc1COC(=O)Nc1ccc(Cl)cc1,-0.294
18,CC(C)Oc1ccc(OCCCN2CCCCCC2)cc1,-0.0757
19,Cc1ccc(C)c(NS(=O)(=O)c2ccc3c(c2)Cc2cc(S(=O)(=O)Nc4cc(C)ccc4C)ccc2-3)c1,-0.189
20,CC1=CC(C)(C)N(S(=O)(=O)c2ccc(F)cc2)c2ccc(C)cc21,1.47
21,NCCCCCc1nnc(SC/C=C/c2ccccc2)o1,0.881
22,Cc1ccc(NC(=O)c2cccs2)cc1S(=O)(=O)Nc1cccc(Cl)c1,0.176

row,Structure (SMILES),z-score
1,CC(=O)Nc1ccc(S(=O)(=O)N2CCN(c3ccccn3)CC2)cc1,-0.0184
2,CC1CCN(c2ncnc3ccccc23)CC1,-0.308
3,CC(=C/c1ccccc1)/C=N/Nc1nc(N2CCCCC2)nc(N2CCCCC2)n1,-0.266
4,Cc1ccc(/C=C(/C#N)c2nc(CCN3C(=O)c4ccccc4C3=O)cs2)cc1,-0.248
5,CC(=O)Nc1ccccc1-c1nnc(SCc2ccccc2Cl)[nH]c1=O,-0.587
6,Cc1nn(Cc2ccccc2)c(Cl)c1C(=O)OCC(=O)NC(=O)NC12CC3CC(CC(C3)C1)C2,-0.127
7,CNc1nnc(-c2cccc(N(C)C)c2)s1,0.126
8,CCc1cccc(C)c1NC(=O)COC(=O)c1c2c(nc3ccccc13)/C(=C\c1cccs1)CCC2,-0.196
9,Cc1ccc(C(C)C)c(OCCCN(C)Cc2ccccc2)c1,-1.64
10,Cn1c(C(=O)N2CCN(C3CCCCC3)CC2)cc2c(=O)n(C)c3ccccc3c21,0.387
11,Fc1ccc(CNc2cnccn2)cc1,0.0947
12,CCN(CC)CCCNC(=O)C1c2ccccc2C(=O)N(C)C1c1ccc(OC)cc1 (stereo not drawn),-0.0495
13,Cc1ccc(S(=O)(=O)NNC(=O)c2ccncc2)cc1,-0.0308
14,CCc1nc(SCC(=O)Nc2cc(C)on2)c2c(C)c(C)sc2n1,-0.346
15,COCCNc1cc(C)nc2ccccc12,0.0686
16,CCOC(=O)N1CCN(C(=O)CN2C(=O)CC(C)(C)S(=O)(=O)c3ccccc32)CC1,-0.198
17,CCCC(=O)Nc1c(-c2cccs2)c(=O)c2ccccc2n1CC,-0.138
18,COc1ccc(CNC(=O)C(c2ccncc2)N(C(=O)Cc2cccs2)c2ccc(C)cc2)cc1 (stereo not drawn),-0.278
19,COc1ccc(C(CNC(=O)c2ccc(OCC3CCCO3)cc2)N2CCOCC2)cc1 (stereo not drawn),-0.0369
20,CCOc1ccc(NC(=O)C(=O)N/N=C\c2ccc(CNS(=O)(=O)c3ccccc3)o2)cc1,-0.205
21,NC1=NC(=O)/C(=C/c2ccccc2OS(=O)(=O)c2ccc3ccccc3c2)S1,-0.052
22,COc1ccc(N(C(=O)c2ccco2)C(C(=O)NC2CCCCC2)c2cccs2)cc1OC (stereo not drawn),-0.187

row,Structure (SMILES),z-score
1,CCN(CC)c1ccc(C2C(C(=O)OC)=C(C)NC(C)=C2C(=O)OC)cc1,0.449
2,CCC(C(=O)O)N1C(=O)/C(=C/c2cccn2C)SC1=S (stereo not drawn),-0.533
3,CCN(CC)S(=O)(=O)c1ccc(OC)c(NC(=O)c2cccc([N+](=O)[O-])c2C)c1,-0.151
4,Cc1nc2cc(NC(=O)NCCC3=CCCCC3)ccc2o1,-0.45
5,O=C1C(=O)N(CCCn2ccnc2)C(c2cccnc2)/C1=C(/O)c1ccccc1 (stereo not drawn),-0.0867
6,CCOC(=O)C1CCCN(C2CC(=O)N(c3cccc(C(F)(F)F)c3)C2=O)C1 (stereo not drawn),-0.0457
7,CCOc1ccc2c(c1)C(c1ccccc1)=NNC(c1ccccc1)=N2,0.0502
8,CCOC(=O)C1C(=O)NC(c2ccccc2)=NC1c1ccc(Cl)cc1 (stereo not drawn),-0.236
9,COc1ccccc1NC(=O)CSc1nc2n[nH]c(C)c2c(=N)n1-c1ccccc1Cl,0.184
10,CC1CC(C)CN(S(=O)(=O)c2ccc(NC(=S)NC(=O)c3ccccc3)cc2)C1 (stereo not drawn),-0.0543
11,Cc1ccc2cc3c(NC(=O)c4ccco4)nn(CC(C)C)c3nc2c1,0.236
12,O=C(NCCc1ccccc1)c1ccc([N+](=O)[O-])cc1,0.0109
13,COCc1nnc(NC(=O)CC(C)c2ccccc2)s1 (stereo not drawn),0.602
14,CCNc1cc(=O)n(C)c(=O)n1C,-0.258
15,CNc1nc(-c2ccccc2)nnc1C(F)(F)F,0.0523
16,CC(C)NC(=O)NC(=O)COC(=O)c1ccc(NC(=O)CC#N)cc1,-1.18
17,CCCn1c(SCc2nc3sc(C)c(C)c3c(=O)[nH]2)nc2ccccc2c1=O,1.3
18,Cc1ccc(C(c2nnnn2CCC(C)C)N2CCN(C)CC2)cc1 (stereo not drawn),0.783
19,Cc1cc(C(=O)Nc2cccc(O)c2)c(C)o1,0.184
20,Cc1ccc(NC(=O)c2ccc(NCCN)c([N+](=O)[O-])c2)cc1,0.0211
21,Cc1cc(C)c2c(c1)C1C=CCC1C(c1ccc(S(=O)(=O)N3CCOCC3)cc1)N2 (stereo not drawn),-0.0689
22,CCOC(=O)C1CCN(C(=O)/C=C/c2cc(OC)c(OC)c(OC)c2)CC1,0.0221

row,Structure (SMILES),z-score
1,Cc1nn(-c2cc(N3CCCC3)ccc2[N+](=O)[O-])c(=O)c2ccccc12,-0.519
2,COc1ccc(/C(N)=N/OC(=O)CCCc2ccccc2)cc1OC,-0.242
3,COc1ccc(NC(=O)CSc2ccc(C)cc2)cc1,-0.0185
4,COc1ccc(N2C(N)=C(C#N)C(c3cccnc3)C3=C2CC(C)(C)CC3=O)cc1 (stereo not drawn),-0.207
5,Cc1cc(NC(=O)CCn2c(=O)sc3ccccc32)no1,-0.449
6,COc1cc(C(=O)Nc2ccccc2N2CCN(S(C)(=O)=O)CC2)cc(OC)c1OC,-0.162
7,Cc1cc2c(=O)n(Cc3ccco3)c(SCC(=O)NCc3ccco3)nc2s1,-0.124
8,O=C(/C=C/c1cc([N+](=O)[O-])ccc1OC(F)F)Nc1cccc(OC(F)F)c1,0.0478
9,COc1ccc(CCN(C)c2ccc(S(=O)(=O)N3CCCC3)cc2[N+](=O)[O-])cc1OC,0.0834
10,COc1cc2c(C(=O)NCc3ccc4c(c3)OCO4)cn(C)c(=O)c2cc1OC,-0.397
11,CCOC(=O)Nc1cc(OCC)c(NC(=O)C2CC2)cc1OCC,-0.0807
12,Cc1cnc(NC(=O)c2cc3c(C)nn(-c4ccccc4)c3s2)s1,-0.311
13,COc1cccc(C2N(c3cccc(Cl)c3)C(=O)C3CCCN32)c1 (stereo not drawn),-0.742
14,CCc1ccc2oc(-c3cc(N=Cc4cccc(OC)c4O)ccc3O)nc2c1,-0.649
15,CCOC(=O)c1ccc(S(=O)(=O)N2CCN(CC(=O)NC(=O)NC(C)(C)C)CC2)cc1,-0.0131
16,Cc1cccc(-n2c(C)cc(/C=N/n3cnnc3)c2C)c1,-0.128
17,Cc1ccc(Cl)cc1N1CCN(CC(O)COCc2ccco2)CC1 (stereo not drawn),-0.376
18,CCOc1ccccc1CNC(=O)CCN1C(=O)COc2ccccc21,0.436
19,Cc1cccc(NC2(C(F)(F)F)N=C3SCCN3C2=O)n1 (stereo not drawn),-0.397
20,COc1ccc(C)cc1NC(=O)c1ccc2c(c1)OCO2,0.143
21,O=C(CCl)Nc1cc(-c2ccccc2)nn1-c1ccccc1,-0.105
22,c1ccc(CSCCc2ccncc2)cc1,0.315

row,Structure (SMILES),z-score
1,O=C(COC(=O)Cc1ccc(S(=O)(=O)N2CCOCC2)s1)NCCc1ccccc1,-0.371
2,N#Cc1cc2c(nc1SCc1ccccc1)CCCC2=O,0.0828
3,Cn1c(=S)[nH]c2cccnc21,0.201
4,O=C(O)c1ccc(NC(=S)NC(NC(=O)c2ccco2)C(Cl)(Cl)Cl)cc1 (stereo not drawn),-0.0488
5,Cc1ccc(NC(=O)C(=O)NC(C)C2COc3ccccc3O2)cc1 (stereo not drawn),-0.445
6,CCOC(=O)c1cc(CC)sc1NC(=O)c1cc([N+](=O)[O-])ccc1N1CCOCC1,-0.0444
7,CCC(CO)Nc1ncc([N+](=O)[O-])cc1C#N (stereo not drawn),-0.425
8,Cc1ccc(-c2ccc(=O)n(CC(=O)NCCCN3CCCCC3C)n2)cc1 (stereo not drawn),0.288
9,O=C(CN1C(=O)NC2(CCCC2)C1=O)Nc1cccc(-c2nnc3n2CCCCC3)c1,0.325
10,COc1ccccc1N1CCN(C(=O)c2cnn3cccnc23)CC1,-0.289
11,COc1ccc(C2=NOC(C(=O)NCc3ccccn3)C2)cc1 (stereo not drawn),0.21
12,Cc1ncc(N=Nc2ccccc2Cl)c(-c2ccccc2)n1,-0.249
13,CCOC(=O)CSc1nc2sc3c(c2c(=O)[nH]1)CC(C)(C)OC3,-0.712
14,Nc1cc(Cl)ccc1N1CCOCC1,0.547
15,Cc1ccc(-c2cc(C(=O)NCc3ccco3)c3ccccc3n2)s1,-0.129
16,CC(C)C1C2=C(CC(C)(C)CC2=O)ON1c1ccccc1 (stereo not drawn),-1.86
17,CCN1CCN(c2nc(C)nc3c2sc(=S)n3C)CC1,-0.0392
18,Cc1cccc(NC(=S)NN(Cc2ccccc2)c2ccccc2)c1C,-0.141
19,CC(C)OC(=O)CN1CCN(C2c3ccccc3-c3ccccc32)CC1,0.135
20,Cc1[nH]c2ccc(F)cc2c1CCNC(=O)C1CCCCC1C(=O)OCC(F)(F)F (stereo not drawn),-0.331
